Measured values taken from the supplement of paper PMC4604168 (melanoma cell lines).
The list shows a part of the results. Single values are uncertain, as repeats are few or missing.

test system: MEL-HO; assay: cell count relative to DMSO control; melanoma cells; higher = more viable cells; settings: library dose: standard library concentration; 72 h
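Note: cells treated in 1,536-well plates, then fixed and DAPI-stained, with nuclei counted from automated high-throughput microscope images.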

SMILES | cell count [%]
O=c1[nH]nc(Sc2ncc([N+](=O)[O-])s2)n1-c1ccc2c(c1)OCCO2 + CCc1ccc(CCOc2ccc(CC3SC(=O)NC3=O)cc2)nc1 [pioglitazone] (first compound 1 µM, partner dose 10 µM) | 115
C[C@@H]1CCN(C(=O)CC#N)C[C@@H]1N(C)c1ncnc2[nH]ccc12 + COc1ccc(-c2ccc3c(N4CCOCC4)nc(N4C[C@@H](C)O[C@@H](C)C4)nc3n2)cc1CO [KU0063794] (first compound 5 µM, partner dose 0.1 µM) | 93.7
C[C@@H]1CCN(C(=O)CC#N)C[C@@H]1N(C)c1ncnc2[nH]ccc12 + O=S(=O)(c1ccccc1)N(CC(F)(F)F)c1ccc(C(O)(C(F)(F)F)C(F)(F)F)cc1 [T0901317] (first compound 5 µM, partner dose 7 µM) | 85.6

test system: MZ2-MEL; assay: as above; settings: library dose: standard library concentration; 72 h

SMILES | cell count [%]
O=c1[nH]nc(Sc2ncc([N+](=O)[O-])s2)n1-c1ccc2c(c1)OCCO2 + Cn1nnc2c(C(N)=O)ncn2c1=O [temozolomide] (first compound 1 µM, partner dose 10 µM) | 89.6
Cn1cncc1[C@@](N)(c1ccc(Cl)cc1)c1ccc2c(c1)c(-c1cccc(Cl)c1)cc(=O)n2C [tipifarnib] + O=C(O)C(=O)Nc1sc2c(c1C(=O)O)CCNC2 [TCS401] (first compound 0.05 µM, partner dose 8.33333 µM) | 87
O=C(Nc1cccc(Cl)c1)Nc1ncc(CCNc2ncnc3ccsc23)s1 + CCc1ccc(CCOc2ccc(CC3SC(=O)NC3=O)cc2)nc1 [pioglitazone] (first compound 0.004 µM, partner dose 10 µM) | 72.5
O=c1[nH]nc(Sc2ncc([N+](=O)[O-])s2)n1-c1ccc2c(c1)OCCO2 + O=C(O)c1ccc(-c2c[nH]c3ncc(-c4ccccc4)cc23)cc1C1CCCC1 [GSK650394] (first compound 1 µM, partner dose 0.8 µM) | 116
O=c1[nH]nc(Sc2ncc([N+](=O)[O-])s2)n1-c1ccc2c(c1)OCCO2 + O=C(Nc1cccc(Cl)c1)Nc1ncc(CCNc2ncnc3ccsc23)s1 [SNS314] (first compound 1 µM, partner dose 0.004 µM) | 105
COc1cc(Nc2ncc(F)c(Nc3ccc4c(n3)NC(=O)C(C)(C)O4)n2)cc(OC)c1OC [Tamatinib] + CCCCCCCCCCCC1=C(O)C(=O)C=C(O)C1=O [Embelin] (first compound 2 µM, partner dose 6 µM) | 62.5
CC1(C)NC(=O)N(c2ccc([N+](=O)[O-])c(C(F)(F)F)c2)C1=O [nilutamide] + O=C1NC(=O)/C(=C/c2ccc(-c3ccc(F)cc3O)o2)S1 [AS252424] (first compound 5 µM, partner dose 5 µM) | 83.5
Cn1cncc1[C@@](N)(c1ccc(Cl)cc1)c1ccc2c(c1)c(-c1cccc(Cl)c1)cc(=O)n2C [tipifarnib] + O=C(Nc1ccccc1)c1cc([N+](=O)[O-])ccc1Cl [GW9662] (first compound 0.05 µM, partner dose 10 µM) | 97.4
O=c1[nH]nc(Sc2ncc([N+](=O)[O-])s2)n1-c1ccc2c(c1)OCCO2 + C[C@@H](N)c1ccc(C(=O)Nc2ccnc3[nH]ccc23)cc1 [RKI983] (first compound 1 µM, partner dose 2 µM) | 61.8
O=C(O)c1ccc(-c2c[nH]c3ncc(-c4ccccc4)cc23)cc1C1CCCC1 + COc1cc(N2CCC(N3CCN(C)CC3)CC2)ccc1Nc1ncc(Cl)c(Nc2ccccc2S(=O)(=O)C(C)C)n1 [NVP-TAE684] (first compound 0.8 µM, partner dose 0.4 µM) | 71.6
O=c1[nH]nc(Sc2ncc([N+](=O)[O-])s2)n1-c1ccc2c(c1)OCCO2 + COc1cc(Nc2ncc(F)c(Nc3ccc4c(n3)NC(=O)C(C)(C)O4)n2)cc(OC)c1OC [Tamatinib] (first compound 1 µM, partner dose 2 µM) | 71.7
O=c1[nH]nc(Sc2ncc([N+](=O)[O-])s2)n1-c1ccc2c(c1)OCCO2 + COc1cc(N2CCC(N3CCN(C)CC3)CC2)ccc1Nc1ncc(Cl)c(Nc2ccccc2S(=O)(=O)C(C)C)n1 [NVP-TAE684] (first compound 1 µM, partner dose 0.4 µM) | 102
